In all, about 33,000 sequences were measured (“E-score (-0.5 to 0.5)”: median about -0.043, highest 2% from about 0.37 on). The list shows a part of the results.
biological target: T1, Upc2 (UniProt Q12151); assay: PBM E-score (8-mer binding enrichment) (E-score (-0.5 to 0.5)); higher = stronger / more preferred TF binding; most listed sequences are background and not binding sites; details: protein concentration: 200 nM; construct: GST-full length
T1 sequence: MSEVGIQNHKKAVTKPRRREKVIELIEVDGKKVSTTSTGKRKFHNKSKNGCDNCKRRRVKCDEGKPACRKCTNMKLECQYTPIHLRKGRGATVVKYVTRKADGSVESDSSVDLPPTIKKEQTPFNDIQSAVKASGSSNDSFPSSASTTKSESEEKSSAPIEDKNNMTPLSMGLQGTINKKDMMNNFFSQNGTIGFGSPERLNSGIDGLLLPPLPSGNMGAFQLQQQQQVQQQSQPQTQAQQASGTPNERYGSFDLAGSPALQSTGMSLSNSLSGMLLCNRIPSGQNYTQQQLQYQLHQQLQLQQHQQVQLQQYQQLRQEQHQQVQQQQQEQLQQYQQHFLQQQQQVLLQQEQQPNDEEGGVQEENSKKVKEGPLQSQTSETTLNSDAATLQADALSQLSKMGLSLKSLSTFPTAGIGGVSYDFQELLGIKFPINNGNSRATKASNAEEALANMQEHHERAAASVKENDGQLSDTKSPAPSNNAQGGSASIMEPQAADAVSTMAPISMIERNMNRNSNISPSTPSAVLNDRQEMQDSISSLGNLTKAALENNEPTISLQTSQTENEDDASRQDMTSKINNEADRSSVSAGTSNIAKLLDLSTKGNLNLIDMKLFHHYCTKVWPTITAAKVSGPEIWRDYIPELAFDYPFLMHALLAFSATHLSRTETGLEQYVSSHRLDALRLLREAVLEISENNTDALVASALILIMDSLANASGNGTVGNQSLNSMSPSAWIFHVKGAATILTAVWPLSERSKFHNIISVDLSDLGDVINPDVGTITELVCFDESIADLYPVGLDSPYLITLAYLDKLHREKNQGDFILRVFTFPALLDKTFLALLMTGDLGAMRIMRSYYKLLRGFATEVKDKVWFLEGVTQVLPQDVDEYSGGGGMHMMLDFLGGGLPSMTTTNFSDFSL
Procedure, shortened: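 Using PURExpress in vitro transcription/translation, GST-tagged yeast transcription factors were made in full-length or DNA-binding-domain form. These were applied at about 100-200 nM to double-stranded universal all-10-mer Agilent arrays, and bound protein was detected with fluorescent anti-GST. Scans were normalised with masliner before the Universal PBM Analysis Suite assigned E-scores to ungapped eight-base words pooled with their reverse complements.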

| Sequence | PBM E-score |
| --- | --- |
| GAGTTCTA | -0.141 |
| AGCGTGAT | 0.028 |
| GTACGTCA | 0.201 |
| CCTTTCAC | 0.014 |
| ATTGGCCG | -0.187 |
| CAACGCTC | -0.0408 |
| CAGAGGAG | -0.241 |
| CCTTGGCC | -0.352 |
| GCATATTA | 0.0991 |
| GCGTTTCC | 0.0493 |
| AGTCGTAG | 0.291 |
| AGGCGAAG | -0.259 |
| CCGCCCAA | -0.13 |
| ATTTGCAG | -0.0997 |
| GCGTTCCA | 0.11 |
| CAGACGCC | -0.11 |
| AAACATCG | -0.033 |
| CCTAAATC | 0.121 |
| CATAAAAA | 0.0889 |
| GGATTCAA | -0.175 |
| CAGCATAA | -0.0242 |
| ACATTGCT | -0.137 |
| TGGGGAAA | -0.167 |
| CGGTCCTA | -0.0204 |
| AATTCTAA | 0.0439 |

| Sequence | PBM E-score |
| --- | --- |
| CTTGTTGA | 0.0628 |
| AGTAGACT | -0.15 |
| GAATACTA | 0.104 |
| ATAGGTTA | 0.0241 |
| GACGTTCC | -0.00278 |
| TAGCCACA | 0.0857 |
| TCTTCCAA | -0.172 |
| GACGAGGC | 0.0687 |
| AACACCTT | 0.0752 |
| ACACCGCG | 0.117 |
| CCTGTGAG | -0.244 |
| GAACCGGC | -0.0869 |
| CCTTATCA | -0.069 |
| ACATTCTC | 0.0478 |
| ACCCAGAC | 0.0954 |
| CGTGCGGA | -0.0318 |
| AATCCGTG | -0.0531 |
| CAGGAGAA | -0.265 |
| GGTACACA | -0.235 |
| CACAGATG | -0.186 |
| CTAGGTTC | -0.149 |
| CAGGGCAG | -0.181 |
| AGTATTCG | 0.215 |
| CAAAGTTC | -0.0961 |
| CTTATTAA | 0.0329 |

| Sequence | PBM E-score |
| --- | --- |
| TACTAACA | 0.02 |
| CGGCGGCC | -0.0473 |
| CATTGTGC | -0.18 |
| GCCCATCC | 0.0466 |
| AATCGGCT | -0.0727 |
| GAGTTCCC | -0.157 |
| AGAGTATA | 0.156 |
| ATGAGCCG | -0.102 |
| ACCTTCTG | -0.204 |
| AGAGGAAT | -0.0712 |
| GATGCGTA | 0.229 |
| CAGTTCTC | 0.0285 |
| CAAGCTTG | -0.233 |
| ATGCCCTG | -0.291 |
| AGACTTTC | -0.181 |
| CTATCTCA | -0.137 |
| AAACCCCC | -0.197 |
| ACATAATC | 0.155 |
| GTGTACTA | 0.127 |
| GTCGGAAA | 0.191 |
| GCGCCGCC | 0.109 |
| ATTCTACG | 0.268 |
| GTAAGGTA | 0.128 |
| ACAGCGCC | -0.0962 |
| AAGACCTA | -0.153 |

| Sequence | PBM E-score |
| --- | --- |
| ACAGGTCA | 0.0278 |
| CTCGGGTA | 0.217 |
| CGCCCGTC | -0.143 |
| AATACGGG | 0.229 |
| ATTCCCCG | -0.0939 |
| CATTTGAG | 0.0275 |
| CACTGCTG | -0.101 |
| AATTTCAT | 0.00289 |
| CGGGACCA | -0.274 |
| AAAAAGCG | 0.0788 |
| ACCGACAA | 0.057 |
| GGGGCTCA | -0.285 |
| CACTTACA | -0.0593 |
| CCCTATCC | -0.0919 |
| AAAGAAAT | 0.0386 |
| GCTGTCGA | -0.0886 |
| CAACAGTA | -0.0139 |
| AATATTCA | -0.076 |
| AAGTCCCA | -0.0974 |
| CTGAGTGA | -0.0657 |
| AGTAGATC | -0.13 |
| CACAAATC | -0.00356 |
| CATTGGTC | -0.202 |
| AACGAAAG | 0.383 |
| GGGGTGGA | -0.298 |

| Sequence | PBM E-score |
| --- | --- |
| AAAGTTCC | -0.185 |
| GTTTTCGA | 0.0699 |
| CACCTCTC | -0.242 |
| CTAAGATA | -0.179 |
| CAGTTCGG | 0.013 |
| ATGTGTCG | 0.139 |
| CGTGAGCC | -0.0588 |
| GAGCCGGC | -0.101 |
| TCATGAAA | 0.0303 |
| AGTTTATG | -0.118 |
| ACCTTGGG | -0.219 |
| AGGTGGCG | -0.158 |
| TGTGTGAA | -0.107 |
| ACTTTCCG | -0.1 |
| AGCAATAC | 0.151 |
| ATCAATTA | 0.126 |
| AATCTTAT | 0.0171 |
| AACATGTA | 0.15 |
| TCTACAAA | -0.0898 |
| AATGTAGT | -0.0884 |
| ACTTGAGA | -0.0234 |
| AGACCCCT | -0.304 |
| ATCAATGA | 0.0601 |
| GGCCCACC | -0.0985 |
| CGGACGAA | 0.148 |

| Sequence | PBM E-score |
| --- | --- |
| ACGGGCCC | 0.0647 |
| GGACTTGA | -0.174 |
| ATTCTTGG | -0.111 |
| ATTAAACC | -0.0396 |
| GACCCGCA | -0.017 |
| CCTACTCC | -0.318 |
| GCGCTCCA | -0.195 |
| ACGTACTA | 0.149 |
| CGATTCTC | -0.065 |
| GAGGGGAA | -0.0713 |
| ATCGTCGC | 0.155 |
| CAGCGCGG | -0.191 |
| ATCCTCCG | 0.0685 |
| GACAATAA | -0.0324 |
| CTAGTAAC | -0.18 |
| CGACACTC | 0.141 |
| ACCTCCTC | -0.191 |
| CGCATCGC | 0.148 |
| GAATCTCC | -0.039 |
| CCCTTCTC | -0.165 |
| CTTGTGTA | 0.052 |
| CCGAAAGA | 0.00915 |
| ATTGATGG | -0.0752 |
| CGACGGAG | -0.0414 |
| CACCGGTG | -0.149 |

| Sequence | PBM E-score |
| --- | --- |
| CCTACGAA | 0.228 |
| GAAGGTCA | -0.222 |
| CCGTTCAC | 0.291 |
| ACATCTGG | -0.0529 |
| GAAGGAGC | -0.102 |
| CTCCACGA | 0.0312 |
| GAATTGAC | -0.0563 |
| ATGCCTTG | -0.103 |
| CCAGGGCG | -0.0863 |
| AATATAGG | 0.0495 |
| TCGAACAA | 0.152 |
| CGTGGGAC | -0.00808 |
| CTGGCTCA | -0.137 |
| GCGGGTCC | -0.0393 |
| GCTATTCC | -0.226 |
| CGTCCTTA | -0.1 |
| AAAGAGCG | 0.141 |
| AACAAGCC | -0.201 |
| GCCCCACA | 0.0246 |
| AGTTTGTC | -0.139 |
| ATCGCTAC | 0.133 |
| ACGGTATG | 0.0901 |

— the supplement of paper PMC3334620
